Reference: the RNAGym collection of RNA variant scans (doi:10.1073/pnas.2313332121)
This sample is rich in variants without activity.

B1: TPR 5TU (parent)
chain: GGAUCUUCUCGAUCUAACAAAAAAGACAAAUCUGCCACAAAGCUUGAGAGCAUCUUCGGAUGCAGAGGCGGCAGCCUUCGGUGGCGCGAUAGCGCCAACGUUCUCAACUAUGACACGCAAAACGCGUGCUCCGUUGAAUGGAGUUUAUCAUG

Variants of: B1
Assay: polymerase ribozyme fitness, log enrichment relative to wild type (log ratio); higher = more active; in vitro selection for triplet polymerase activity
Outline: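 Fitness is a logarithmic measure of how a genotype enriched relative to the wild type, with replicate averages weighted by inverse variance. The logarithm uses base 2, and enrichment came from Illumina sequencing of input and output libraries. Those libraries were PCR-built, transcribed mutants of each subunit of a heterodimeric triplet polymerase ribozyme, passed through one triplicate in vitro selection round that included frozen incubation at −7 °C, gel excision of extended constructs and streptavidin-bead capture. Genotypes were kept only if they had ≥10 input reads and ≥1 read per output.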

Variant | polymerase ribozyme fitness (log ratio)
GGAUCUUCUCGAUCUAACAAAAAAGACAAAUCUGCCACAAAGCUUGAGAGCAUCAUCGGAUGCAGAGGCGGCAGCCUUUGGUAGCGCGAUAGAGCCCACGUUCUCAACUAUGACACGCAAAACGCGUGCUCCGUUGAUUGGAGUUUAUCAUG [U55A C79U G83A C93A A97C A138U] | ≤ -4.2
GGAUCUUCUCGAUCUAACAAAAAAGACAAAUCUGCCACAAAGCUUGAGAGCAUCAUCGGAUGCAGAGGCGGCAGCCUUCGGUGGAGCGAUAGUGCCAACGUUCUCAACUAUGACACGCAAAACGCGUGCUCCGAUGAGUGGAGUUUAUCAUG [U55A C85A C93U U134A A138G] | ≤ -4.2
GGAUCUUCUCGAUCUAACAAAAAAGACAAAUCUGCCACAAAGCUUGAGAGCAUCAUCGGAUGCAGAGGCGGCAGCCUUCGGUGGAGCGAUAGCGCCAACGUUCUCAACUAUGACACGCAAAACGAGUGCUCCGUUGAAUGGAGUUUAUCAUG [U55A C85A C125A] | -1.75
GGAUCUUCUCGAUCUAACAAAAAAGACAAAUCUGCCACAAAGCUUGAGAGCAUCAUCGGAUGCAGAGGCGGCAGCCUUCGGUGGAGCGAUAGCGCCAACAUUCUCAACUAUGACACGCAAGACGCGUGCUACGUUGAAUGGAGUUUAUCAUG [U55A C85A G100A A121G C131A] | ≤ -4.2
GGAUCUUCUCGAUCUAACAAAAAAGACAAAUCUGCCACAAAGCUUGAGAGCAUCAUCGGAUGCAGAGGCGGCAGCCUUCGGUGGAGCGAUAGCGCCAACGUUCUCAACUAUGACACGCAAAACGCGUGCUCCCUUGAAUGGAGUUUAUCAUG [U55A C85A G133C] | -3.05
GGAUCUUCUCGAUCUAACAAAAAAGACAAAUCUGCCACAAAGCUUGAGAGCAUCAUCGGAUGCAGAGGCGGCAGCCUUCGGUGGGGCGAUAGCGCCAACGUUCUCAACUAUGAAACGCAAAACGCGUGCUCCGUUGAAUGGCGUUUAUCAAG [U55A C85G C114A A142C U151A] | -4.19
GGAUCUUCUCGAUCUAACAAAAAAGACAAAUCUGCCACAAAGCUUGAGAGCAUCAUCGGAUGCAGAGGCGGCAGCCUUCGGUGGCGAGAUAGCGCCAACGUUCUCAACUAUGACACGCAAAACGCGUGCUCCGUUGAAUGGAGUUUAUCAUG [U55A C87A] | ≤ -4.2
GGAUCUUCUCGAUCUAACAAAAAAGACAAAUCUGCCACAAAGCUUGAGAGCAUCAUCGGAUGCAGAGGCGGCAGCCUUCGGUGGCGGGAUAGCGCCAAAGUUCUCAACUAUGACACGCAAAACGCGUACUCCGUUGAAUGGAGUUUAUCAUG [U55A C87G C99A G128A] | ≤ -4.2
GGAUCUUCUCGAUCUAACAAAAAAGACAAAUCUGCCACAAAGCUUGAGAGCAUCAUCGGAUGCAGAGGCGGCAGCCUUCGGUGGCGGGAUAGCGCCAACGGUCUCAACUAUGACACGCAAAACGCGUGCUCCGUUGAAUGGAAUUUAUCAUG [U55A C87G U101G G143A] | ≤ -4.2
GGAUCUUCUCGAUCUAACAAAAAAGACAAAUCUGCCACAAAGCUUGAGAGCAUCAUCGGAUGCAGAGGCGGCAGCCUUCGGUGGCGUGACAGCGCCAACGUUCUCAACUAUGACACGCAAAUCGCGUGCUCCGUUGAAUGGAGUUUAUCAUG [U55A C87U U90C A122U] | ≤ -4.2
GGAUCUUCUCGAUCUAACAAAAAAGACAAAUCUGCCACAAAGCUUGAGAGCAUCAUCGGAUGCAGAGGCGGCAGCCUUCGGUGGCGCGAUAGAGCCAACGUUCUCAACUAUGACACGCAAAACGCGUGCUCCGUUGAAUGGAGUUUAUCAUG [U55A C93A] | -2.96
GGAUCUUCUCGAUCUAACAAAAAAGACAAAUCUGCCACAAAGCUUGAGAGCAUCAUCGGAUGCAGAGGCGGCAGCCUUCGGUGGCGCGAUAGGGCCAACGUUCUCAACUAUGACACGCAAAACGCGUGCUCCGUUGAAUGGAAUUUAUCAUG [U55A C93G G143A] | -3.93
GGAUCUUCUCGAUCUAACAAAAAAGACAAAUCUGCCACAAAGCUUGAGAGCAUCAUCGGAUGCAGAGGCGGCAGCCUUCGGUGGCGCGAUAGUGCCAACGUUCUCAACUAUGACACGCAAAACGCGUGCUCCGUUGAAUGGAGUUUAUCAUG [U55A C93U] | -1.68
GGAUCUUCUCGAUCUAACAAAAAAGACAAAUCUGCCACAAAGCUUGAGAGCAUCAUCGGAUGCAGAGGCGGCAGCCUUCGGUGGCGCGAUAGUGUUAACGUUCUCAACUAUGACACGCAAAACGCGUGCUCCGUUGAAUGGAGUUUAUCAUG [U55A C93U C95U C96U] | -3
GGAUCUUCUCGAUCUAACAAAAAAGACAAAUCUGCCACAAAGCUUGAGAGCAUCAUCGGAUGCAGAGGCGGCAGCCUUCGGUGGCGCGAUAGUGCCAACGUUCUCAACUAUGACACGCAAAACGCGUGCUCCGUUGAAUGGAGUUUAUCAAG [U55A C93U U151A] | ≤ -4.2
GGAUCUUCUCGAUCUAACAAAAAAGACAAAUCUGCCACAAAGCUUGAGAGCAUCAUCGGAUGCAGAGGCGGCAGCCUUCGGUGGCGCGAUAGCGACAACGUUCUCAACUAUGACACGCAAAACGCGUGCUCCGUUGAAUGGAACUUAUCAUG [U55A C95A G143A U144C] | -3.04
GGAUCUUCUCGAUCUAACAAAAAAGACAAAUCUGCCACAAAGCUUGAGAGCAUCAUCGGAUGCAGAGGCGGCAGCCUUCGGUGGCGCGAUAGCGUCAACGUUCUAAAGUAUGACACGCAAAACGCGUGCUCCGUUGAAUGGAGUUUAUCAUG [U55A C95U C105A C108G] | ≤ -4.2
GGAUCUUCUCGAUCUAACAAAAAAGACAAAUCUGCCACAAAGCUUGAGAGCAUCAUCGGAUGCAGAGGCGGCAGCCUUCGGUGGCGCGAUAGCGCAAACGUUCUCAACUAUGACACGCAAAACGCGUGCUCCGUUGAAUGGAGUUUAUCAUG [U55A C96A] | -1.21
GGAUCUUCUCGAUCUAACAAAAAAGACAAAUCUGCCACAAAGCUUGAGAGCAUCAUCGGAUGCAGAGGCGGCAGCCUUCGGUGGCGCGAUAGCGCAAACGUUCUCAACUAUGACACGCAAAACGCGUGCUCCGUUCAAUGGAGUUUAUCAUG [U55A C96A G136C] | -3.78
